The other results are listed elsewhere or left out.
molecular target: T1, OsWOX13 (Oryza sativa, UniProt Q5QMM3 1-267); assay: protein-binding microarray (RPBM); PBS, 2% BSA, 51.3 ng/ul salmon testes DNA, 50 uM zinc acetate, 200 nM TF, 25 C, 1 h; high values mean tight binding; conditions: protein: recombinant; tags: N-terminal polyhistidine and DsRed monomer fusion (pET32a); label: CyDye5-dUTP incorporated in the synthesized complementary strand; 3' TTTTT single-stranded linker to array surface; dsDNA, one strand shown
T1 sequence: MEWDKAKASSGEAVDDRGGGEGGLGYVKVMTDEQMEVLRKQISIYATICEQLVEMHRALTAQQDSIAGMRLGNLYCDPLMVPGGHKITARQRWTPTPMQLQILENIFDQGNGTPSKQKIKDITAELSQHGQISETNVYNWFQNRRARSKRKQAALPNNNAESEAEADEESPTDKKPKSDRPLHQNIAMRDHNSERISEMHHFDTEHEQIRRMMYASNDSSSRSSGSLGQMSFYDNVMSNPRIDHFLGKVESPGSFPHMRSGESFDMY
Summary of the method: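 The binding signal for each feature is its fluorescence intensity in arbitrary units. An Axon 4000B scanner was used to read a custom Agilent array that had been made double-stranded with Cy5-dUTP primer extension, blocked with 2% BSA, incubated at 25 °C for 1 h with 200 nM protein in PBS, 2% BSA, salmon testes DNA and 50 µM zinc acetate, and washed. The protein was an N-terminal polyhistidine–DsRed transcription factor fusion from E. coli BL21-CodonPlus, purified on Ni–NTA.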

Going from “TTGTAATTAACTAGGCTCAAGATAGATAGACGTCGTCTCTCGGAGTCACCTAGTGCAG” to “ATTATAATTTATTTTGTTATGAGTTGTTTTATCACTTATACGGAGTCACCTAGTGCAG”, the binding signal falls from 21400 fluorescence intensity (a.u.) to 7290 fluorescence intensity (a.u.).

First: GGCGAGAGCTTGATTGAAAGAATTCAGAGGTAGCAGGGACCGGAGTCACCTAGTGCAG
Second: TAGAGGGAGTAATTAATTATGCGCTTATCAGTTGGGAAATCGGAGTCACCTAGTGCAG
The binding signal of the first is higher: 37500 fluorescence intensity (a.u.) for the first, 7530 fluorescence intensity (a.u.) for the second.

Compared with “TATTGACATATTTAGATATTTGGTAATTACTATAATATAACGGAGTCACCTAGTGCAG”, “GGAGATTGACTAATTGGCGGACCGGTGGGACGGTGATTTTCGGAGTCACCTAGTGCAG” is higher in binding signal: 11300 fluorescence intensity (a.u.) for the first, 44900 fluorescence intensity (a.u.) for the second.

First: ATGTGCTAATGATGGATTAATTACGCTTAATAAATTCGTCCGGAGTCACCTAGTGCAG
Second: GTTGTTTACCCATATACCCAGTGGGTATGGGTAAGATTCGCGGAGTCACCTAGTGCAG
The binding signal of the first is higher: 28000 fluorescence intensity (a.u.) for the first, 17800 fluorescence intensity (a.u.) for the second.

Going from “GATCACTGTAAACTTGAGGTTAATTAGTTCTGCCCTGTGGCGGAGTCACCTAGTGCAG” to “GGATCGCCCATGATGTAATTAAATCACCTGATACTGATAGCGGAGTCACCTAGTGCAG”, the binding signal falls from 5310 fluorescence intensity (a.u.) to 4200 fluorescence intensity (a.u.).

Going from “TCAACGGTGGAGCATGATTGGTTGATCAAATCAAAACACACGGAGTCACCTAGTGCAG” to “CGAAATTGCTCGTCTGCGGTAGCAATAGCTATGGCAGCGGCGGAGTCACCTAGTGCAG”, the binding signal falls from 12700 fluorescence intensity (a.u.) to 10800 fluorescence intensity (a.u.).

First: AATAAATAATAATTAATAAGACGAATGATCAAATGCTATACGGAGTCACCTAGTGCAG
Second: AGGTGTACATGATTGTTTGCTTCCTTGCTGCAGCTCGGCGCGGAGTCACCTAGTGCAG
The binding signal of the first is lower: 12000 fluorescence intensity (a.u.) for the first, 14100 fluorescence intensity (a.u.) for the second.

First: GATTAATTAACCTAATACTGCAAGCCACATGTGTAAGAAACGGAGTCACCTAGTGCAG
Second: CGAGTTCCATTGATTGCGAGATAGCTCTGTCTGCCATGCACGGAGTCACCTAGTGCAG
The binding signal of the first is higher: 18300 fluorescence intensity (a.u.) for the first, 10100 fluorescence intensity (a.u.) for the second.

Compared with “CAAGATTTTAATAGTAGCGCAATCAATATAAATGTTGATGCGGAGTCACCTAGTGCAG”, “GAAGTTGATTATGAGCTCTTGGATCTTTTGGCAGGTGCAACGGAGTCACCTAGTGCAG” is higher in binding signal: 6600 fluorescence intensity (a.u.) for the first, 19400 fluorescence intensity (a.u.) for the second.

Compared with “TTTTGGGAATTGATTTGATCACAACAAATAGCCTTCGTCTCGGAGTCACCTAGTGCAG”, “AGTTTGTAATAATTAAAACTTAATTACTCATACACTAATACGGAGTCACCTAGTGCAG” is lower in binding signal: 32300 fluorescence intensity (a.u.) for the first, 16400 fluorescence intensity (a.u.) for the second.

Going from “TTTCAAGGATCATTTGATTAATTACCAAACGTGCCTGATTCGGAGTCACCTAGTGCAG” to “GGATTGGACTGACAGATTCGATTCGTTCGTTCGAAGATGCCGGAGTCACCTAGTGCAG”, the binding signal falls from 7380 fluorescence intensity (a.u.) to 6320 fluorescence intensity (a.u.).

First: CCAATCCACAACATAACCATCAATCATTCATTGACGCAAGCGGAGTCACCTAGTGCAG
Second: CGAAATGACTATCCTGCCCTTCATTTCTTCCCGATCTGTCCGGAGTCACCTAGTGCAG
The binding signal of the first is higher: 4680 fluorescence intensity (a.u.) for the first, 3210 fluorescence intensity (a.u.) for the second.

Going from “AGACAAATTTAGCGTATTAATAGTAACATATTGTTTACAGCGGAGTCACCTAGTGCAG” to “TAAATGGTCTAATTATAATCTTGTTAAGTACTTTGAGTGTCGGAGTCACCTAGTGCAG”, the binding signal rises from 9250 fluorescence intensity (a.u.) to 10000 fluorescence intensity (a.u.).

Going from “TCTCTATCAATATTATCTATTCAATCATGCAGTTAGAAACCGGAGTCACCTAGTGCAG” to “ACCAGCTTTGATTAGTTAAGGGACGCCGGATATCTGGTTTCGGAGTCACCTAGTGCAG”, the binding signal rises from 5150 fluorescence intensity (a.u.) to 19200 fluorescence intensity (a.u.).

First: TATCTTTAATTAAAATCCCCGTTACAAGCATTATATGCTGCGGAGTCACCTAGTGCAG
Second: TAGCTAATACTTAATTAATCACGCGCTAATAGATCGGAACCGGAGTCACCTAGTGCAG
The binding signal of the first is lower: 12900 fluorescence intensity (a.u.) for the first, 17700 fluorescence intensity (a.u.) for the second.

First: TCCTAATCACCTCGTTATTTAGCCATTCAGACCAAAAGAACGGAGTCACCTAGTGCAG
Second: TTTTGATAGAATACTGTTGGTAACATCATGTCTAGTTTGTCGGAGTCACCTAGTGCAG
The binding signal of the first is lower: 7680 fluorescence intensity (a.u.) for the first, 14400 fluorescence intensity (a.u.) for the second.

Compared with “ACTATAATGAGCAATCTTCAGCGGGCATAGTCCACCCAACCGGAGTCACCTAGTGCAG”, “TACGTTTAATATTTATAATTAATATTCAAACATCCGATGTCGGAGTCACCTAGTGCAG” is lower in binding signal: 6830 fluorescence intensity (a.u.) for the first, 5410 fluorescence intensity (a.u.) for the second.

Going from “AACGATGACTGCAGGATATTATGTTCCTATTGCAAAGTCTCGGAGTCACCTAGTGCAG” to “CACTTGCTAATCACTCTCACTCTCATCTTAGCTTGTCCATCGGAGTCACCTAGTGCAG”, the binding signal rises from 3390 fluorescence intensity (a.u.) to 6680 fluorescence intensity (a.u.).

Compared with “AACGGGATAGACATATTAACTGTTCTCTTGCACGAGTATCCGGAGTCACCTAGTGCAG”, “TTAACAGATTCTTCTTAATTAATAAATAAGCTGTCATGATCGGAGTCACCTAGTGCAG” is higher in binding signal: 12200 fluorescence intensity (a.u.) for the first, 17300 fluorescence intensity (a.u.) for the second.

Going from “AAATTATATATGATTAGTTCTAATCAACCAAAATTATAGTCGGAGTCACCTAGTGCAG” to “GTGTGATCATATTTACAGCTAATTATTCTTTCAGCGGTAGCGGAGTCACCTAGTGCAG”, the binding signal falls from 14000 fluorescence intensity (a.u.) to 6810 fluorescence intensity (a.u.).

Compared with “GTAAATTGAACGGTTTCGTATAATTTAGGGGTGAAGATTTCGGAGTCACCTAGTGCAG”, “TCGTTAATTATTCAAACATTGCTTGTTCCTCATCTACAGCCGGAGTCACCTAGTGCAG” is higher in binding signal: 21000 fluorescence intensity (a.u.) for the first, 39400 fluorescence intensity (a.u.) for the second.
